The text below walks through data of ChEMBL document CHEMBL4888484, “Replenishing the malaria drug discovery pipeline: Screening and hit evaluation of the MMV Hit Generation Library 1 (HGL1) against asexual blood stage Plasmodium falciparum ,using a nano luciferase reporter read-out” (2022).

SMILES strings stand for the structures. Out of some 150,000 compounds screened, about 540 (0.36%) showed an effect of 50% or more. The list shows a part of the results.

This test concerns Plasmodium falciparum. The experiment in a line: Primary screen in NF54 nanoGlo assay, in single point, at 2uM, 72h; a lower Z score goes with more inhibition. The class given is functional, Erythrocyte. The note with it: timepoint 72 hour.
One may read the % Inhibition as the change of the read-out against control, counted positive when it falls. `Cc1nnsc1C(=O)NCc1ccccc1-c1ccsc1`: the “% Inhibition” value is recorded as -3% and the Z score is 0.51.
For `O=C(c1cc2ccccn2c1)N1CCCCO1` the same measures were -13% and 1.77.
For `CCC[C@H](C)N1CC2(CCN(C(=O)CCc3cccnc3)CC2)OC1=O` the same measures were -3% and 0.4.
For `Cc1cc(C(=O)N2CCOc3ccc(C(=O)N4CCOCC4)cc3C2)no1` the same measures were 1% and -0.2.
Take `O=C(Cc1ccc2c(c1)OCO2)N1CCn2nccc2C1`: the “% Inhibition” value was -9% and the Z score is 1.43.
For `c1ccc(OCCn2ccnc2-c2c[nH]cn2)cc1` the same measures were 0% and -0.07.
`CC(C)=CCC/C(C)=C/CNC(=O)c1cc2n(n1)C[C@@H](O)CNC2=O`: the “% Inhibition” value is 8% and the Z score is reported as -1.11.
For `Cc1ccc2c(Nc3ccc(Cl)c(F)c3)c(C(=O)N3CCC[C@H](C)C3)cnc2n1`, the “% Inhibition” value is recorded as -8% and the Z score turned out to be 1.31.
For `CC(=O)Nc1ccc(S(=O)(=O)N[C@H]2CO[C@H]3[C@@H]2OC[C@@H]3Nc2nccc(C(C)(C)C)n2)cc1` the same measures were -2% and 0.37.
For `O=S(=O)(c1cccc2nsnc12)N1CCc2[nH]c3ccc(F)cc3c2C1` the same measures were -8% and 1.
For the compound `Cn1cc(S(=O)(=O)N[C@H]2CCN(CC3CCCC3)C2)cn1`, the “% Inhibition” value was -10% and the Z score is reported as 1.39.
For `Cn1nncc1CN[C@@H]1COC(C)(C)O[C@@H]1c1ccccc1` the same measures were -31% and 3.69.
For `CC(C)c1ocnc1C(=O)Nc1ccccc1N1C(=O)N[C@@H](C)C1=O` the same measures were 1% and -0.2.
As for `O=C(N[C@H]1CCc2ccccc21)c1cccc(S(=O)(=O)NCc2ccc3c(c2)OCO3)c1`, the “% Inhibition” value is given as -11% and the Z score is 1.49.
For `O=C(N[C@H]1CCCc2c1cnn2-c1ccccn1)c1ncccc1O` the same measures were -13% and 1.69.
For `CCCN1CCC(NC(=O)CCCc2ccccc2)CC1` the same measures were -10% and 1.37.
For `CCC1=NO[C@@H](CN(CC)Cc2noc(C3CCC3)n2)C1` the same measures were -14% and 2.45.
As for `Cc1c(NC(=O)[C@H]2CCOC2)cnn1C`, the “% Inhibition” value came out at 14% and the Z score is -1.6.
For `CCC(C)CC(=O)N1CCC(C2(Cc3cccc(F)c3)NC(=O)N(CCN(C)C)C2=O)CC1` (stereo unspecified) the same measures were -10% and 1.79.
For `COCC(C)(C)c1noc(-c2ccccc2-c2nc(C)no2)n1` the same measures were -7% and 1.4.
For `CCc1[nH]nc(-c2ccc3c(c2)OCO3)c1NC(=O)Cc1cccc(OC)c1` the same measures were -7% and 1.15.
On to `CN(C)CCN1CC(=O)N[C@@H](CC2CCCCC2)C1=O`, for which the “% Inhibition” value was found to be 2% and the Z score is -0.22.
For `CC(C)NC(=O)[C@@H]1Cc2[nH]cnc2C2(CCN(Cc3ccsc3)CC2)N1` the same measures were -8% and 1.29.
